The text below walks through data of PubChem BioAssay AID488969 (Vanderbilt High Throughput Screening Facility, 2010).

In all, about 110,000 compounds were measured (“z-score”: median about -0.1, highest 2% from about 2 on). Some of the results follow.

The target of this experiment is Metabotropic glutamate receptor 8 (Rattus norvegicus) (UniProt P70579). Put plainly: rat mGluR8 modulators via GIRK flux, primary screen, cell-based, thallium flux, HTS (AID 488969). As to conditions: HEK293 rat mGluR8, GIRK (G protein-gated inwardly rectifying potassium channel) thallium flux, FluoZin2; at 10 µM; stronger effect = higher value; submaximal glutamate (EC20) added with thallium.
UniProt P70579, sequence (P70579 whole entry, looked up): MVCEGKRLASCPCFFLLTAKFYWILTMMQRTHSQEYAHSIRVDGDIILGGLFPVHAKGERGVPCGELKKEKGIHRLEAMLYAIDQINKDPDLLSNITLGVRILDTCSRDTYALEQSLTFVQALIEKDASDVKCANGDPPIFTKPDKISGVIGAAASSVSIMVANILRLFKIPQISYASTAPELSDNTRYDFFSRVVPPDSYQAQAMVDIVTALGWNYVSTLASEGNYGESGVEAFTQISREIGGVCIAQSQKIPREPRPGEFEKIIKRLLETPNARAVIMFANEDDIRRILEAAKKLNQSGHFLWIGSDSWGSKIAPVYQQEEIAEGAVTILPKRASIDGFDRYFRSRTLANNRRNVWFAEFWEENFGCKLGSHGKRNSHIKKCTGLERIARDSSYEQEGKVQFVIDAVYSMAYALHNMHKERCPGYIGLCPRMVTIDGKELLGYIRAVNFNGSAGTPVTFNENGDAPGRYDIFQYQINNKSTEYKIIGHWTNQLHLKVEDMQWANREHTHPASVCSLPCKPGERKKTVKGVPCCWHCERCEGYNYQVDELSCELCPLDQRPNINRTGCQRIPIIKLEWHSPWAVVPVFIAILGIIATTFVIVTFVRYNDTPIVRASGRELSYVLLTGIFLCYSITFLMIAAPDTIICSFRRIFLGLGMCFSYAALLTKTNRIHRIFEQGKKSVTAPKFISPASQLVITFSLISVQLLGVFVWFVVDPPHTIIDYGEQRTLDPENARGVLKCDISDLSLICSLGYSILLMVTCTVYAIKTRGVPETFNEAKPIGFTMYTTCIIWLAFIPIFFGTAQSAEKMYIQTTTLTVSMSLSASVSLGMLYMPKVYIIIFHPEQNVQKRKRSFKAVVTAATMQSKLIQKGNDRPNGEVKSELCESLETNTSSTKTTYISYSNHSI
Consider `CCn1c(SCC(=O)N2CCCCC2C)nnc1-c1ccc(S(=O)(=O)N2CCN(C)CC2)cc1` (stereo unspecified), for which the z-score was determined as 0.0291.

`COc1ccc(NC(=O)c2c(SC)nsc2SC)cc1` came in with a z-score of 0.0111.

Consider `O=C(CSc1nc2ccccc2c(=O)n1Cc1ccccc1)NCc1ccco1`, for which the z-score stood at 0.62.

As for `Cc1ccc(S(=O)(=O)N2CC=C(c3c(C)n(C)c4ccccc34)CC2)cc1`, the z-score worked out at 0.174.

`CCc1nccn1S(=O)(=O)c1ccc(OC)c(OC)c1` gave a z-score of -0.00946.

Turning to `O=C(COC(=O)C(Cc1ccccc1)NC(=O)c1ccccc1)c1ccccc1` (stereo unspecified), the z-score was -0.519.

The molecule `CCOc1cc2[nH]c(=S)n(CCC(=O)N3CCc4ccccc4C3)c(=O)c2cc1OCC` returned a z-score of -0.251.

Regarding `Cc1ccc(Oc2nc3ccccn3c(=O)c2/C=C(\C#N)C(=O)Nc2c(C)n(C)n(-c3ccccc3)c2=O)c(C)c1`, the z-score was -0.352.

`O=C(O)c1ccccc1Nc1ccccc1C(=O)O` showed a z-score of -0.112.

The molecule `O=C(CN1C(=O)C(=O)c2ccccc21)NC1CCCCC1` had a z-score of 0.0555.

For the molecule `O=C1CC(Cc2ccccc2)C(=O)N1CCc1ccc2c(c1)OCO2` (stereo unspecified), the z-score was -0.19.

`Cc1cc(N2CCCCC2)nc(N2CCOCC2)n1` showed a z-score of 0.0961.

Take `CC(=O)OC1CCC(OC(C)=O)c2c1n([O-])c(C)c(C)[n+]2=O` (stereo unspecified): the z-score is -0.212.

The molecule `CCCCNc1nc(-c2ccccc2)nc(-n2ccnc2)n1` showed a z-score of -0.231.

The molecule `CCOc1ccccc1NC(=O)N1CCCC1C(=O)Nc1nnc(CC)s1` (stereo unspecified) gave a z-score of -0.537.

Take `O=C(NCc1ccc2c(c1)OCO2)C(C(=O)c1ccccc1)n1cc(Cl)ccc1=O` (stereo unspecified): the z-score is 0.237.

In the case of `O=C(O)CCC(=O)Nc1ccc2c(c1)oc1ccccc12`, the z-score is -0.656.

In the case of `CCOP(=O)(OCC)C(NC(=O)Nc1cccc(Cl)c1)C(N)=O` (stereo unspecified), the z-score is -0.0798.

In the case of `COc1ccc2c(c1)c1ncn(CCN3CCNCC3)c(=O)c1n2C`, the z-score was -0.141.

With `Cc1cccc(NCc2ccccc2O)c1C`, the z-score is 0.825.

In the case of `COC(=O)c1cc(O)c(OCc2ccccc2)c(O)c1`, the z-score was -0.276.

In turn, `Cc1ccccc1NC(=O)c1ccc(S(=O)(=O)C(F)F)cc1` returned a z-score of -0.0622.

Turning to `CCOC(=O)C(=CNc1cc(C)ccn1)C(=O)OCC`, the z-score came out at 0.94.

`Cc1cccc(Nc2nnc(SCC(=O)NC(=O)Nc3ccc4c(c3)OCCO4)s2)c1` displayed a z-score of -0.0418.

With `CCOC(=O)c1[nH]c(C)c(C(=O)OCCN2C(=O)c3ccccc3C2=O)c1C`, the z-score was 0.204.

The molecule `CCn1c(C)nc2cc(S(=O)(=O)C(F)(F)F)ccc21` returned a z-score of -0.753.

`O=C1Nc2ccccc2SC(c2ccccc2)C1O` (stereo unspecified) registered a z-score of -0.0924.

Turning to `Nc1nc2ccccc2n1/N=C/c1ccc(Br)cc1`, the z-score amounted to 1.29.

Turning to `COc1ccc(NC(=O)Nc2ccc(OC)c(OC)c2)c([N+](=O)[O-])c1`, the z-score was -0.42.

`COc1ccc(NC(=O)c2cccs2)cc1OC` displayed a z-score of 0.0154.

In turn, `COc1cc2c(OC)cccc2cc1C(=O)O` had a z-score of -0.44.

As to `C=CCn1c(SCc2c(C)noc2C)nc2sc3c(c2c1=O)CCCC3`, the z-score is -0.0819.

`Cc1cc(C(F)(F)F)n2nc(-c3cnn(C)c3C(F)(F)F)cc2n1`: the z-score was -0.144.

In the case of `COc1ccc(OC)c(/C=C/C(=O)Nc2ccc3c(c2)CCC3)c1`, the z-score was -0.515.

On to `Cn1c(=O)c2c(nc(NCCc3ccccc3)n2Cc2ccccc2)n(C)c1=O`, for which the z-score is -0.49.

The molecule `COc1cccc(-c2nnc(-c3ccc(C(F)(F)F)cc3)o2)c1OC` registered a z-score of 0.256.

For the molecule `O=S(=O)(c1cccc(C(F)(F)F)c1)N(CCCN1CCOCC1)Cc1cccs1`, the z-score was -0.589.

Regarding `Cc1nc(NCCc2cnc[nH]2)c2oc3ccccc3c2n1`, the z-score was -1.54.

`COc1ccc(N(Cc2ccccc2)S(=O)(=O)c2cccc(C(=O)NC3=NCCS3)c2)cc1` had a z-score of -0.206.

As to `COc1ccccc1Nc1nnc(SCC(=O)NC(=O)Nc2ccc3c(c2)OCCO3)s1`, the z-score is -0.138.

`O=C(NC(=S)Nc1ccc2c(c1)OCCO2)c1cccc(Br)c1` returned a z-score of 0.945.

As to `C/C(=N\NC(N)=O)c1cccc(Cl)c1`, the z-score was -0.0531.

The molecule `O=C(Nc1cc(C(F)(F)F)ccc1N1CCOCC1)c1ccc(Cl)nc1` yielded a z-score of 0.281.

Regarding `O=C1CC(N2C(=O)/C(=C/C=C/c3ccccc3)SC2=S)C(=O)N1c1ccccc1` (stereo unspecified), the z-score is -0.134.

As to `CCCCn1nnc(NC(=O)Cc2ccc(Cl)cc2)n1`, the z-score was -0.00798.

Take `COc1cc2[nH]c(=O)n(CCCCCC(=O)N3CC=C(c4ccccc4)CC3)c(=O)c2cc1OC`: the z-score is -0.216.

The molecule `CC1CC(=O)c2cnc(N3CCOCC3)nc2C1` (stereo unspecified) registered a z-score of -0.0519.

Regarding `CCCS(=O)(=O)NCCc1cc2cc(C)c(C)cc2[nH]c1=O`, the z-score is 0.195.

For `CC1(C)CC(=O)c2cc(C(=O)N3CCCC(C)(C)C3)c(=O)n(-c3ccccc3)c2C1`, the z-score was -1.59.

The molecule `O=C(Nc1ccccc1Cl)c1cc(S(=O)(=O)N2CCCCC2)ccc1N1CCOCC1` registered a z-score of 0.266.

On to `CCOC(=O)CNC(=O)c1sc(NC(=O)c2cccc(F)c2)nc1C`, for which the z-score was found to be 0.135.

Molecule `COc1ccc(NC(=O)CSC2CCCCC2)cc1` yielded a z-score of 0.542.

Turning to `CCOC(=O)N1CCN(C(=O)CSc2nc3c([nH]c4ccccc43)c(=O)n2C)CC1`, the z-score was -0.103.

Turning to `O=C(O)C1CCCCC1C(=O)NC1CCCCC1` (stereo unspecified), the z-score is 0.0368.

In turn, `CCOC(=O)Cc1csc(NS(=O)(=O)c2ccc(Cl)cc2)n1` had a z-score of 0.0252.

On to `COc1ccc(C(=O)Nc2ccccc2C(=O)NCCN2CCOCC2)cc1`, for which the z-score was -0.271.

Turning to `CC(OC(=O)c1cccnc1SCc1cc(=O)n2ccccc2n1)c1ccccn1` (stereo unspecified), the z-score is -0.0745.

Turning to `CCOC(=O)c1[nH]c2ccc(OC)cc2c1NC(=O)CCN1CCc2ccccc2C1`, the z-score is -0.404.

In the case of `N#Cc1c[nH]n2c(=O)cc(Cc3ccccc3)nc12`, the z-score was -0.113.

Turning to `Cc1nn(Cc2ccccc2)c(Cl)c1C(=O)NCc1ccc(C)n1C`, the z-score is -0.137.

`CCOC(=O)c1ccc(NC(=O)c2ccc(NC(=O)c3ccccc3)cc2)cc1` showed a z-score of -0.341.

`Cc1cccc(N2CCN(C(=O)CN3CCOc4ccccc43)CC2C)c1` (stereo unspecified) came in with a z-score of 1.14.

The molecule `CSC(=NC#N)N1CCN(c2ccc(Cl)cc2)CC1` had a z-score of -0.0515.

Molecule `CCCc1nn(-c2cc(Cl)ccc2OC)c2c1C(=O)CCC2` returned a z-score of 0.0593.

On to `O=C(CS(=O)(=O)c1c[nH]c2ccccc12)N1CCCCC1`, for which the z-score was -1.47.

Regarding `COc1cccc(C2NC(=S)NC3=C2CCc2ccccc23)c1` (stereo unspecified), the z-score is -0.168.

`O=C(N1CCCCCC1)N1CCN(S(=O)(=O)N2CCCCC2)CC1` returned a z-score of 1.11.

Turning to `CN(C)CCOc1nc(-c2ccccc2)nc2c1oc1ccccc12`, the z-score was 0.11.

In turn, `CCOC(=O)N1CCN(C(=O)CSc2nc(-c3cccc(C)c3)ns2)CC1` yielded a z-score of 0.228.

Take `COCc1cc(C)nc2sc(C(=O)N3CCCC3)c(N)c12`: the z-score was -0.117.

Consider `Cc1cc(/C=C2/C(=O)NN(c3ccccc3)C2=O)c(C)n1-c1cccc(O)c1`, for which the z-score is -0.338.
